Measurements: patent publication US20070281326A1 (QUARK PHARMACEUTICALS, published 2007)

How the values were obtained:
[1] = target: T1, tyrosinated alpha-tubulin (Tyr-tubulin), endogenous in cell extracts (Homo sapiens (Human), UniProt P68363, tyrosinated at its carboxyl terminus (Tyr-tubulin) where detected with anti-Tyr-tubulin antibodies); assay: GST pull-down from 293T extract, Western blot (FIG. 14)
T1 construct: Endogenous protein of 293T or BE2C cell extracts; also called Tyr-alpha-tubulin; endogenous alpha tubulin
T1 sequence (P68363 whole entry): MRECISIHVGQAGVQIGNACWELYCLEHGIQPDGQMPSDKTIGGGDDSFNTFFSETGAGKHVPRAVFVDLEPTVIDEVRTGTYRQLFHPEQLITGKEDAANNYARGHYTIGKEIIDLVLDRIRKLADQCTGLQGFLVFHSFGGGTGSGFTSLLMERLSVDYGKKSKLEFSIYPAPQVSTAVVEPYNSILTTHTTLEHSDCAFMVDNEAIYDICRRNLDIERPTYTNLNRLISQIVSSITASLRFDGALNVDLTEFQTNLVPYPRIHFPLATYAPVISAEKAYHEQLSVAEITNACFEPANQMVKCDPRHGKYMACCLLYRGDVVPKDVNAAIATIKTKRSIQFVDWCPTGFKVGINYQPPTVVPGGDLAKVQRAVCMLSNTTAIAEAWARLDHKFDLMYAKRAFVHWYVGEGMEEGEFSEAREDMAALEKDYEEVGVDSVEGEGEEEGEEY

TSC2 = target: T2, TSC2 (human, UniProt P49815 1-1807, limits assumed); assay: as above
Chain of TSC2 (P49815 other isoform, or with tags, fused parts or gaps limits assumed): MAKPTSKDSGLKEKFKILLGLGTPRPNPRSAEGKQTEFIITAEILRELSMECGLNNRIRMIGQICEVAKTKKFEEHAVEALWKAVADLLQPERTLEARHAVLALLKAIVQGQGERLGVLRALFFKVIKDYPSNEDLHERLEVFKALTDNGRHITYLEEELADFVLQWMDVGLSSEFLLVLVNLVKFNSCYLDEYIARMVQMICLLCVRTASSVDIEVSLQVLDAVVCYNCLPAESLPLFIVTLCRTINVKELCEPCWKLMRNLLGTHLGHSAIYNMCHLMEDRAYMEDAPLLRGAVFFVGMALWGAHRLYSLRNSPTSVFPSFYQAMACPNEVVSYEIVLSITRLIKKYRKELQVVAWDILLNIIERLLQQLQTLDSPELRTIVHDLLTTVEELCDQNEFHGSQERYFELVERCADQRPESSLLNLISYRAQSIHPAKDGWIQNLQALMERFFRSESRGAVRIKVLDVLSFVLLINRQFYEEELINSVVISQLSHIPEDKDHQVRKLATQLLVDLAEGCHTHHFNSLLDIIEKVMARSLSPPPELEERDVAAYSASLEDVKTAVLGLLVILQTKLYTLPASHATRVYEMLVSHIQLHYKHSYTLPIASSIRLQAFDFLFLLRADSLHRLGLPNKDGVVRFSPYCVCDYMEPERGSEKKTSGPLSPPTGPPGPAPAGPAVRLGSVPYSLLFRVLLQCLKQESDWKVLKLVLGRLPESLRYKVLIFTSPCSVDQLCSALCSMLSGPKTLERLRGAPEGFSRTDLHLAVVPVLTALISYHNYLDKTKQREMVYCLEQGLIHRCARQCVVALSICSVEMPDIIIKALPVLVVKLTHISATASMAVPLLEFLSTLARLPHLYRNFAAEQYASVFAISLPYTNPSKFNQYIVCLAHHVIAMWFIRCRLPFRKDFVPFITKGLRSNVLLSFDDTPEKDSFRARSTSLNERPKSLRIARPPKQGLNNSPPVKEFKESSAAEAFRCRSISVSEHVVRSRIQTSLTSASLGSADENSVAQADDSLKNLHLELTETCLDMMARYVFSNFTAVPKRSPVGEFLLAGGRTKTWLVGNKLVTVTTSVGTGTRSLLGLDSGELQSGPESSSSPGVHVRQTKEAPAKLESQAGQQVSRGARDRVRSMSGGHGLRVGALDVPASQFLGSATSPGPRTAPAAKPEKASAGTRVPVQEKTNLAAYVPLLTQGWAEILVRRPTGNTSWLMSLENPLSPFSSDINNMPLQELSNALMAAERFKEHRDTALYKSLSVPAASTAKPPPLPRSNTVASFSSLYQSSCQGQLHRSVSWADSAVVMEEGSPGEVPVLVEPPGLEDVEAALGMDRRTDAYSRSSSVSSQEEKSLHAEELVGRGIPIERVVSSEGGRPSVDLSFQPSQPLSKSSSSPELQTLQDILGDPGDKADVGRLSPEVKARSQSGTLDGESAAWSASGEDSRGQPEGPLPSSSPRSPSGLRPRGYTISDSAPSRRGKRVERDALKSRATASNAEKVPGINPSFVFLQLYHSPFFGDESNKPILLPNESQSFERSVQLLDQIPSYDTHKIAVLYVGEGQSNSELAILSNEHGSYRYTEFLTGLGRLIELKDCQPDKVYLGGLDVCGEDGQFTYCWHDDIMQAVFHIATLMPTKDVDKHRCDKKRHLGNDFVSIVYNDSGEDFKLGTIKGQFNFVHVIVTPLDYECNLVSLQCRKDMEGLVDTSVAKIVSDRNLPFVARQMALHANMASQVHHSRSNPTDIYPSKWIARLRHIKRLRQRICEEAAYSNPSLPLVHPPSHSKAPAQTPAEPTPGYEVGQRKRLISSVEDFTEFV
T2 construct: TSC2 without a stated tag, endogenous or expressed from transfected cDNA in 293T cell extracts; also called tuberin; endogenous TSC2

B1: free GST (other)
chain: not shown
notes: Control bait
binding result [1]: no binding
binding result (TSC2): no binding
